Experimental data from PMC4336329 (PLoS ONE, 2015).
Out of some 310,000 compounds screened, about 2,200 (0.71%) showed an effect of 50% or more. The effect is printed as a negative number. The list shows a part of the results.

Target: human ether-à-go-go-related gene (hERG) potassium channel (human, UniProt Q12809)
Experiment: primary screen, population patch clamp on CHO cells stably expressing hERG

human ether-à-go-go-related gene (hERG) potassium channel, sequence (Q12809 whole entry, looked up): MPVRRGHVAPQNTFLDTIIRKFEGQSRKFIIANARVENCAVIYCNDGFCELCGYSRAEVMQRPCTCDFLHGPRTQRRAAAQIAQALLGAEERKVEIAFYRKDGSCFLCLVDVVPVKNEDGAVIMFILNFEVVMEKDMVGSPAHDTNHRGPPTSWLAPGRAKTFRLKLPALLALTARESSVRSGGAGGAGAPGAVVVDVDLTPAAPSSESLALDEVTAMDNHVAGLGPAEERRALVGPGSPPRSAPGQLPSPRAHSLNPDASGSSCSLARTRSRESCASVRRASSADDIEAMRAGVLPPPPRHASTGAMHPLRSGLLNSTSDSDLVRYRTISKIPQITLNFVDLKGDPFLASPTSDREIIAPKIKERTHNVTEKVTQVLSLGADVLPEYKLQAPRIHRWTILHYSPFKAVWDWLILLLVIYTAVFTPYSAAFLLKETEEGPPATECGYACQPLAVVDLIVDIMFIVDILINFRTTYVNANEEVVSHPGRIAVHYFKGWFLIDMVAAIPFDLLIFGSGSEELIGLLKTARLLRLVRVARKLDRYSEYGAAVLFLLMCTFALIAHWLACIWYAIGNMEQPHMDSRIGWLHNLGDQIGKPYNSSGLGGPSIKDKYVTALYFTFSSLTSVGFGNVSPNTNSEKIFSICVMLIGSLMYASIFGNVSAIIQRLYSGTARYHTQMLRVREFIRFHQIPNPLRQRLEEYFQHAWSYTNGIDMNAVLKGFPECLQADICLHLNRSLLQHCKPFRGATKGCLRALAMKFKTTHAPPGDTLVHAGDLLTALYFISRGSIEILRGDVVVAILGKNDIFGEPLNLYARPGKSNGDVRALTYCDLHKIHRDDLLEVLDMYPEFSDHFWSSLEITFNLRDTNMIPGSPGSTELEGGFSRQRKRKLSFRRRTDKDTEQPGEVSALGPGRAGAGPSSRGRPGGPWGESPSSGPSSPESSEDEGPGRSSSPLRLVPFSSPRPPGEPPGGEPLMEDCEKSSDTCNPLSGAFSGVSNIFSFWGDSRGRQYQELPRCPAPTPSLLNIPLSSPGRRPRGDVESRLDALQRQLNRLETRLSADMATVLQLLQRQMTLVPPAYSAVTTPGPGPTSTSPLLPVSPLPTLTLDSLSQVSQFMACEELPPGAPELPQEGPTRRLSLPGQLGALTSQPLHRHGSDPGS

SMILES	hERG current change (%, negative = inhibition) at 1uM [%]
O=C(CSc1nnc(-c2cccnc2)n1Cc1ccco1)c1ccc(Br)cc1	-19.5
CC(SCc1ccccc1)C(=O)Nc1ccc(F)cc1 (centres unmarked)	9.78
CN(C(=O)CN1C(=O)c2cccc(N)c2C1=O)C1CCCCC1	9.4
O=C(Nc1ccccc1-c1nnc(SCc2ccccc2)o1)c1ccccc1	6.44
Nc1nc(Cl)nc(N(c2ccccc2)c2ccccc2)n1	10.8
CCOC(=O)c1cnc2c(-c3ccc(Cl)cc3)cnn2c1C	14.6
Cc1ccc(C(=O)Nc2c(C(=O)N3CCOCC3)cnn2-c2ccccc2)cc1	0.423
NC(=O)c1ccc(/C=N/O)nc1	-16.1
O=C(CCl)NCCN1C(=O)S/C(=C\c2cccnc2)C1=O	9.41
Cc1ccc(C2N=C(N)Nc3nc(=O)c4ccccc4n32)cc1 (centres unmarked)	11.1
O=C(N/N=C/c1ccc(Cl)c([N+](=O)[O-])c1)c1ccc2nc[nH]c2c1	9.14
CCOC(=O)C1=C(O)c2ccccc2C(=O)/C1=C\c1ccc(CC)cc1	0.269
CSc1ccc(-c2nc3cnccn3c2Nc2ccc3c(c2)OCO3)cc1	9.9
COC(=O)c1cc(C(=O)Nn2cnnc2)cc([N+](=O)[O-])c1	17.6
CCCCn1c(N)c(N(CCOC)C(=O)c2ccc(N3CCCC3)c([N+](=O)[O-])c2)c(=O)[nH]c1=O	12.7
O=C(Cn1cc(F)c(=O)[nH]c1=O)NCCO	1.39
CC(=O)Nc1ccc(NC(=O)C(C)NC(C)c2cccc3ccccc23)cc1 (centres unmarked)	15.5
COc1ccc(CCNC(=S)NC(=O)c2c(-c3ccccc3Cl)noc2C)cc1OC	8.88
CCOc1ccccc1NC(=O)NCCN1CCCCC1	14.1
Cc1c(Cl)c([N+](=O)[O-])nn1CCCC(=O)Nc1c(C)n(C)n(-c2ccccc2)c1=O	18.9
Cc1ccccc1NC(=S)NCCc1ccccn1	-0.291
Cc1c(OCC(=O)NCC2CCC(C(=O)NCCCO)CC2)ccc2c(-c3ccccc3)cc(=O)oc12 (centres unmarked)	-4.36

SMILES	hERG current change (%, negative = inhibition) at 1uM [%]
CC1Sc2ccc(C(=O)NCc3cccc(C(F)(F)F)c3)cc2NC1=O (centres unmarked)	1.77
O=C(COc1ccccc1)Nc1nnc(S(=O)(=O)N2CCCCC2)s1	17.1
Cc1nc(Cl)c2c(n1)N(CC(N)=O)C(=O)CO2	12.2
COc1ccccc1NC(=O)/C(=C\c1cccnc1)NC(=O)c1ccc(C)cc1	-25.1
O=C(COC(=O)C1COc2ccccc2O1)Nc1cccc(Cl)c1 (centres unmarked)	9.86
CCc1ccc2c(CN(C)Cc3ccc(OC(F)F)c(OC)c3)cc(=O)oc2c1	-18.8
COc1cccc(/C=N/N2CCN(Cc3ccccc3)CC2)c1O	8.01
COc1ccc(-n2c(=O)[nH]c3ccccc3c2=O)c(OC)c1	8.59
O=C(/C=C/c1cn(-c2ccccc2)nc1-c1ccc2c(c1)OCCO2)NCCO	-3.76
Oc1cccc2ccc(/C=C/c3ccccc3Cl)nc12	6.57
CNC(=S)NNC(=O)c1noc(C)c1C(=O)N1CCN(C(c2ccccc2)c2ccccc2)CC1	22.9
CCOc1ccc2oc(C(=O)NNC(=O)c3csc(N4CCOCC4)n3)c(C)c2c1	1.7
Cc1cc(N2C(=O)C(O)=C(C(=O)c3cccs3)C2c2cccc(Br)c2)no1 (centres unmarked)	15
COC(=O)C1=C(c2cccc(OCc3ccccc3)c2)C[C@@H]2CC[C@H]1N2C(=O)NCc1ccccc1C(F)(F)F	9.71
CN(CC(=O)Nc1ccccn1)S(=O)(=O)c1ccc(Cl)cc1	10.1
CNC(=S)N1CCN(C(=O)c2ccco2)CC1	7.89
COc1ccc2nc(NC(=O)C3CCCN(S(=O)(=O)c4c(C)noc4C)C3)sc2c1 (centres unmarked)	9.33
CCOc1c(C#N)c(C#N)c2nc(C)cc(C)n12	-2.6
COc1ccc(OC)c(NC(=O)C2C(C(=O)O)C3(Cl)C(Cl)=C(Cl)C2(Cl)C3(Cl)Cl)c1 (centres unmarked)	8.4
Cc1ccc(C(=O)NCC(=O)OCCOc2cccc(Cl)c2)cc1	3.31
COc1cc(C(=O)N[C@H](C(=O)Nc2nnc(C3CC3)s2)C(C)C)cc(OC)c1OC	-5.62
Cn1nc(C(=O)N2CCN(c3ccc(Cl)cc3)CC2)c2c1-c1ccccc1S(=O)(=O)C2	-6.38

SMILES	hERG current change (%, negative = inhibition) at 1uM [%]
C[C@@H](NC(=O)[C@@H]1Cc2ccccc2CN1)C(=O)NC1CCCC1	11.9
CCn1cc([N+](=O)[O-])c(C(=O)Nc2nc(-c3ccc(C)c(C)c3)c(C)s2)n1	11
Cc1ccccc1N	11.2
Cc1ncccc1C(=O)N1CCCC(CNC(=O)c2ccc(-c3ccccc3)cc2)C1 (centres unmarked)	2.2
CC1C(=O)N2CCCc3cc(S(=O)(=O)Nc4ccccc4C(N)=O)cc1c32 (centres unmarked)	5.86
COC(=O)c1[nH]c2cc(OC)c(OC)cc2c1NC(=O)Oc1ccccc1	9.45
CCOC(=O)c1c(C)[nH]c(C(=O)N(C)CC(=O)Nc2ccc(OC)cc2)c1C	-1.06
Cc1ccc(C)c(NC(=O)C2CCCN(S(=O)(=O)c3c(C)nn(C)c3C)C2)c1 (centres unmarked)	18.8
CCOc1ccc(NC(=O)c2cc(F)c(F)cc2Cl)cc1OCC	5.72
CC1CCCN(C(=O)Cn2nnc(-c3ccc(F)cc3)n2)C1 (centres unmarked)	3.02
Cc1ccccc1NS(=O)(=O)c1ccc(OCC(=O)NCC2CCCO2)cc1 (centres unmarked)	7.91
O=C(NCc1ccccc1)c1nc[nH]c1C(=O)NCc1ccccc1	3.69
COc1ccc(OC)c(/C=C/C(=O)OCC(=O)NCc2cccs2)c1	13.8
CSc1nc2ccccc2n1CC(=O)Nc1ccccc1	9.15
CCCCn1nc(NS(=O)(=O)c2cccc3nonc23)c2cc3cccc(C)c3nc21	11.1
C=CCN(N=Nc1cccc([N+](=O)[O-])c1)c1cccc([N+](=O)[O-])c1	23.8
Cc1cccnc1NC(=O)c1ccc(NS(=O)(=O)/C=C/c2ccccc2)cc1	0.119
Cc1ccc(C)c(S(=O)(=O)C(C#N)c2nc3ccccc3nc2N2CCOCC2)c1 (centres unmarked)	15.5
CC(C)C(C)(C#N)NC(=O)CSc1nnc(-c2ccncc2)n1Cc1ccccc1 (centres unmarked)	-0.509
CC(=O)NS(=O)(=O)c1ccc(NS(=O)(=O)c2ccc3ccccc3c2)cc1	12.6
Cc1c(NC(=O)c2ccc3c(c2)OCO3)cccc1-c1nc2ccccc2o1	1.15
CC(=O)NC(c1cc(Cl)c2cccnc2c1O)C1CC1 (centres unmarked)	7.78

SMILES	hERG current change (%, negative = inhibition) at 1uM [%]
O=C1C(=O)N(Cc2ccco2)C(c2cccs2)/C1=C(\O)c1cccc([N+](=O)[O-])c1 (centres unmarked)	8.91
O=C(Cn1nc(-c2ccco2)ccc1=O)Nc1ccc(Br)cc1	8.87
Cc1cc(C(=O)N2CCc3ccccc3C2)on1	6.25
O=C(NNC(=O)c1sccc1-n1cccc1)c1ccc(Cl)cc1	8.21
O=C(c1ccc2ccccc2n1)N1CCN(c2ccccc2Cl)CC1	-3.11
CCOC(=O)C1CCCN(C(=O)c2ccc(Cn3c(=S)[nH]c4cc(C(=O)OC)ccc4c3=O)cc2)C1 (centres unmarked)	11.2
CS(=O)(=O)O.Cc1ccc(N(CC2=NCCN2)c2cccc(O)c2)cc1	-10.3
COc1ccc(/C=N/NC(=O)CCC(=O)Nc2ccc(F)cc2)c(OC)c1	8.61
CCOc1ccc2nc(SCC(=O)NC3CCCCC3)[nH]c2c1	9.17
O=C1CN(C(=O)c2ccc(Br)o2)C(c2ccc(F)cc2)c2cc(F)ccc2N1 (centres unmarked)	-2.83
Cc1nc(N)c(CC(Br)CBr)c(Cl)n1 (centres unmarked)	14.1
COc1ccc(-c2oc(=O)n(C)c2-c2ccc(OC)cc2)cc1	1.64
CC(CCc1ccccc1)NC(=O)c1cccc(F)c1 (centres unmarked)	14.2
O=[N+]([O-])c1ccc2nc(-c3ccncc3)[nH]c2c1	-3.78
CC(C)=CC(O)C/C(C)=C/COc1ccc2ccc(=O)oc2c1 (centres unmarked)	9.5
O=S(=O)(Nc1ncccn1)c1ccc(NC(=S)Nc2ccccc2)cc1	13.1
O=C(Nc1cnn(Cc2ccc(F)cc2)c1)c1cc(-c2ccco2)on1	8.5
COc1ccc(-n2c(O)c(C=Nc3c(C)n(C)n(-c4ccccc4)c3=O)c(=O)[nH]c2=O)cc1	3.68
CSC1=NS(=O)(=O)c2c(C)nn(C)c2S1	13.8
CN(C)S(=O)(=O)n1cc(/C=C(\NC(=O)c2ccccc2F)C(=O)N2CCCC2)c2ccccc21	12.3
